PMC6919601, “Identification of Plasmodium dipeptidyl aminopeptidase allosteric inhibitors by high throughput screening” (PLoS ONE, 2019)
Values joined by “and” are separate entries in the source; they are usually repeats but may differ in a detail not shown here. Equal entries are not always repeated. Screen size: about 110,000 compounds; about 230 (0.21%) showed an effect of 50% or more. The list shows a part of the results.

Molecular target: DPAP1 (Plasmodium falciparum, UniProt Q8IIJ9)
Assay: primary screen, percent inhibition; read by cleavage of a fluorogenic dipeptide substrate; higher = more effect of the substance
Parameters: species or system P. falciparum D10 trophozoite lysates; single well
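Also: 30 min substrate incubation versus DMSO and 10 µM JCP410 controls.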

Sequence of DPAP1 (Q8IIJ9 whole entry, looked up): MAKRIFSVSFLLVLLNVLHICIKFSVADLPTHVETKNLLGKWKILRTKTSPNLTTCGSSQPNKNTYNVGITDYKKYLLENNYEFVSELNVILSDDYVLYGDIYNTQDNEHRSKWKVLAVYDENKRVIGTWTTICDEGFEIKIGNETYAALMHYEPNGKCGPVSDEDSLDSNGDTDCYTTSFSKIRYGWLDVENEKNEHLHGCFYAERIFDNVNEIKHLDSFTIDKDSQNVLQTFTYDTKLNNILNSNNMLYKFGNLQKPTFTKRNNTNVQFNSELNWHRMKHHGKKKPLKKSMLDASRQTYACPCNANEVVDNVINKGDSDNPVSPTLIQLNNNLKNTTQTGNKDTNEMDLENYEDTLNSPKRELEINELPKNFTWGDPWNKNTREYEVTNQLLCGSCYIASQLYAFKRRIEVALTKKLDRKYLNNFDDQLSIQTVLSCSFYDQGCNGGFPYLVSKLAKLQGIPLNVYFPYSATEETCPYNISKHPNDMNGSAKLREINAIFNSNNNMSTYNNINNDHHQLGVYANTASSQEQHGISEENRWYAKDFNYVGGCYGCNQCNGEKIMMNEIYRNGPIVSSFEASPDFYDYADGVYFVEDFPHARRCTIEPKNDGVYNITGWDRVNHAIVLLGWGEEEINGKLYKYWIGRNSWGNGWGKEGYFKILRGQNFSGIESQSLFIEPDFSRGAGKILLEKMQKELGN

SMILES | % Inhibition @ 10 uM
Cc1cccc(-c2noc(CN(C(=O)COc3cc(C)cc(C)c3C)C(C)C)n2)c1 | -5.26%
COc1ccc(C(=N)NOC(=O)c2ccco2)cc1OC | -8.87%
CCOc1cc(Br)c(C(C)NC(=O)c2ccco2)cc1OCC (stereo not shown) | -3.32%
COc1ccc(CNC(=O)Cn2ccc3cc(S(=O)(=O)N4CCCC4)ccc32)cc1OC | 3.3%
Cc1cc(Br)ccc1S(=O)(=O)Oc1cccc2cccnc12 | 0.0719%
CC(=O)Nc1ccc2c(c1)S(=O)(=O)c1cc(NC(C)=O)ccc1-2 | 1.64%
Cc1sc(NC(=O)C2CC3CCC2C3)c(C(N)=O)c1C (stereo not shown) | 6.54%
COc1ccc(CC2(C)OC(c3ccc(C(C)(C)C)cc3)=NN2C(C)=O)cc1 (stereo not shown) | -0.85%
NC(=O)c1ccc(Cl)c(S(=O)(=O)N2CCCCC2)c1 | -1.15%
Cc1cccc(NC(=O)CCC(=O)Nc2cccc(C)c2)c1 | 5.31%
CCOCc1cc(CN2CCCCC2)c(O)c2ncccc12 | -4.07%
CCN(CC)CCCCN1c2ccccc2CCc2ccccc21 | 1.24%
CC1(C)CC(=O)C2=C(C1)N(CCc1ccccc1)C(=O)C2(NC(=O)c1ccccc1F)C(F)(F)F (stereo not shown) | -7.35%
CCOC(=O)N1CCC(NC(=O)c2cc3sc(Cl)cc3n2C)CC1 | -3.08%
CC(C)(C)OC(=O)NC(Cc1c[nH]c2ccccc12)C(=O)NCc1ccccc1 (stereo not shown) | -3.05%
O=c1/c(=C/c2cn(-c3ccccc3)nc2-c2ccccc2)sc2nc(-c3ccncc3)nn12 | -0.385%
O=C1NC(Nc2nc3ccccc3s2)(C(F)(F)F)C(=O)N1C1CCCCC1 (stereo not shown) | 0.221%
O=C(NC1CCCCC1)NS(=O)(=O)c1ccccc1Cl | 2.17%
CCC(C)NC(=O)C1CCN(c2nc3ccccc3n3cccc23)CC1 (stereo not shown) | 0.372%
Cc1ccc(CNC(=O)C2CCN(c3nc4cc(Cl)ccc4s3)CC2)cc1 | -5.92%
COc1ccc(C2NCCc3cc(OC)c(OC)cc32)cc1O (stereo not shown) | -1.8%
O=C(c1ccc(COc2ccccc2Br)o1)N1CCCCCC1 | -3.49%

SMILES | % Inhibition @ 10 uM
COc1ccc(CCNC(=O)C2CCN(c3ncnc4c3nc3n4CCCCC3)CC2)cc1OC | 2.59%
COc1ccc(CC(=O)Nc2cc(C)ccc2O)cc1OC | 0.472%
Cc1ccc(-n2ncc3c(NCc4ccccn4)ncnc32)cc1C | -3.02%
CCSC1=C(C#N)C(c2ccc(Cl)cc2)C(C(C)=O)=C(C)N1 (stereo not shown) | -4.08%
Oc1ncnc2c1C1(CCCC1)Cc1ccccc1-2 | 0.51%
COCCNC(=O)Cn1c(=O)c2cccn2c2cccnc21 | -7.87%
CCOc1ccc(C(=O)NCCc2ccc(OC)cc2)cc1 | 3.44%
COc1ccc(N2CC(C(=O)Nc3ccc(Br)cc3C)CC2=O)cc1 (stereo not shown) | -1.02%
COc1ccc(-c2nnc(SCC(=O)N3CCC(C)CC3)o2)cc1OC | -0.999%
CCOC(=O)N1CCN(Cc2nc3c(c(=O)n(C)c(=O)n3C)n2Cc2ccccc2)CC1 | -8.06%
O=C(c1cccc(F)c1)N1CCN(C2CCCCCC2)CC1 | 4.83%
CC(C)C(=O)NCCn1ccc2ccccc21 | -1%
O=C(Nc1ccc(Cl)cc1Cl)c1nc2nc(-c3ccccc3)cc(C(F)(F)F)n2n1 | 0.215%
COc1ccc(NC(=O)CCSc2cc(C)c3ccccc3n2)cc1 | -7.4%
Cc1ccnc(NC(=O)Cc2ccccc2Cl)c1 | -5.81%
CC(=O)c1c(C)n(OCc2ccccc2)c2ccc3c(no[n+]3[O-])c12 | 3.04%
CCCCC(=O)N1CCN(CC/N=C(\C)C2=C(O)CC(C)(C)CC2=O)CC1 | 4.32%
Cc1ccc(S(=O)(=O)C2(C(=O)NCc3ccccc3Cl)CC2)cc1 | -2.56%
CCOC(=O)N1CCN(C(=O)CCS(=O)(=O)c2ccc(Br)s2)CC1 | 0.723%
CCOc1cccc(C2CC(=O)Nc3cc(OC)c(OC)cc32)c1 (stereo not shown) | -17%
CCN(CC)C(=O)c1ccc(NC(=O)Cn2cnc3c(=O)n(C)c(=O)n(C)c32)cc1 | -3.69%
CCn1c(=S)[nH]c2sc3c(c2c1=O)CC(C)(C)OC3 | 1.4%

SMILES | % Inhibition @ 10 uM
CC1CN(C(=O)c2ccc(NS(=O)(=O)c3cccc(Cl)c3)cc2)CC(C)O1 (stereo not shown) | -1.51%
O=C(CSCc1ccc(Cl)cc1)NCCSc1ccccn1 | 2.7%
CC1(C)Cc2nc3[nH]c(=S)[nH]c(=O)c3cc2CO1 | 5.73%
CCC(C)Nc1nc(OC)nc(Oc2ccc(O)nn2)n1 (stereo not shown) | -6.79%
CC(=O)c1cc(F)c(N2CCN(C(=O)c3cc(F)c(F)cc3Cl)CC2)cc1C | -4.21%
COCCNC(=O)CCn1nc(-c2ccc(C)cc2)c2ccccc2c1=O | 0.351%
CC(=O)c1c2c(n3c1ccc1ccccc13)C(=O)c1ccccc1C2=O | 3.67%
COC(=O)c1cc(S(=O)(=O)NC2CCN(Cc3ccccc3)CC2)c[nH]1 | -3.76%
CCn1c(SCC(=O)NCc2ccc(C)cc2)nc2c(c1=O)SCC2 | 1.39%
C=CCn1c(SCC(=O)NCc2ccco2)nc2scc(-c3ccccc3)c2c1=O | -5.28%
NC1=NC(c2cccc(Br)c2)n2c(nc3ccccc32)N1 (stereo not shown) | 5.15%
COc1ccc(Br)cc1CNC(=O)Cn1ncn2cccc2c1=O | -4.26%
CCCCOc1ccc(CNCC2CCOC(C)(C)C2)cc1 (stereo not shown) | 3.46% and -2.74%
C=CCc1cc(/C=C2/SC(=O)NC2=O)cc(OCC)c1OCC | -5.82%
Cc1ccc2oc(-c3cccc(NC(=O)c4ccccc4F)c3)nc2c1 | 2.99%
COc1ccc(-c2nc(S)c3c(n2)Oc2c(O)cccc2C3)c(OC)c1 | -3.85%
CCOC(=O)N1CCN(Cc2ccc(F)cc2F)CC1 | -4.04%
Cc1cccc(NC2=NC(=O)/C(=C/c3ccc(OC(C)C(=O)O)cc3)S2)c1 (stereo not shown) | 8.31%
CCC(C(=O)NCc1ccc(F)cc1)n1ncn2c(cc3occc32)c1=O (stereo not shown) | 3%
CCOC(=O)c1cnn(CCOC(=O)c2ccccc2F)c1NC(=O)c1ccccc1F | 29.3%
